# Source: article PMC4242493
# Some of the results follow. The list includes weakly bound sequences.
# Molecular target: MaxL homodimer (UniProt P61244)
# Experiment: universal protein-binding microarray (PBM)
# Conditions: PBS-based mixture, 10 nM His-tagged protein dimer, 2% milk, 200 ng/uL BSA, 50 ng/uL salmon testes DNA, 0.02% TX-100; detection with Alexa 488 anti-His …; high values mean tight binding; most listed sequences are background and not binding sites; double strand, one strand shown
# UniProt P61244, sequence (P61244 whole entry): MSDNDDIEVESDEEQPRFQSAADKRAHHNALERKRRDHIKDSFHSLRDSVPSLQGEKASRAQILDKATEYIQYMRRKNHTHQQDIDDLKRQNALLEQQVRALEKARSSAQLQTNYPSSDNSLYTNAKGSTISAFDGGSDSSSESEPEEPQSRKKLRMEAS
row,Sequence,binding signal (normalized occupancy)
1,TCCGCGGA,0.0687
2,ATGGCCGC,0.0772
3,GAAGGCCC,0.0695
4,AAACCCAA,0.0746
5,AAGCTCAG,0.067
6,AAGACTCC,0.0677
7,AGTTGGGG,0.0748
8,TACTCGGA,0.0718
9,ACACTGTG,0.0758
10,ACCACCGT,0.0757
11,CTCGTAAC,0.0752
12,CATGGTGA,0.094
13,GATATTAC,0.0774
14,CGCGCGAC,0.0761
15,TACCCCAA,0.0766
16,ATCATGGG,0.0858
17,CGTGAGTC,0.0749
18,AAAGAGAT,0.0732
19,TCAGGGCA,0.0701
20,AATGCGAG,0.0746
21,AGGTATTA,0.0767
22,ACTCGCGA,0.077
23,AAATTTTA,0.0696
24,AATTCGCC,0.0696
25,ATCCGACA,0.0825

row,Sequence,binding signal (normalized occupancy)
1,AGCAAGAT,0.0771
2,AAGCAGCG,0.0796
3,AAAAATAT,0.0782
4,ATGTCCGA,0.0845
5,ATCTAGTC,0.0749
6,ACGAGGCA,0.0852
7,CGGTCCAA,0.0678
8,AATCGCTC,0.0703
9,AATGCCGT,0.0803
10,AGTTAACC,0.0794
11,AAGGCGAG,0.0697
12,GATAAAGA,0.0781
13,CCTTATAC,0.0794
14,AGTTCGCG,0.0727
15,AACTTCGG,0.0719
16,CACTGTCA,0.0794
17,CCTATCTA,0.0779
18,CGTCTTTA,0.0718
19,CCCTAAGG,0.0735
20,CGAGATAG,0.0734
21,CACCGCTC,0.0735
22,AATCGCAG,0.0687
23,AATCGGAT,0.0725
24,GTCATCAC,0.0823
25,CCCCCCGG,0.0663

row,Sequence,binding signal (normalized occupancy)
1,AGGACCTA,0.0709
2,CATGCCAC,0.0989
3,GGAACTAC,0.0712
4,GAAGGTAC,0.0718
5,CCTTCACA,0.0875
6,AGAATAGA,0.0729
7,GCGATGCC,0.0693
8,ATTGGCAA,0.0805
9,ACTAGAGT,0.0743
10,ACACTACG,0.0754
11,ACCCCTAA,0.0769
12,AGCCCTAA,0.0665
13,GCTTGGCA,0.0766
14,ATTACGCA,0.0804
15,CTATTGGC,0.0773
16,AAGTGATC,0.0794
17,CCAGGCAA,0.0705
18,CTTAGCAC,0.0791
19,CGGTGGGA,0.0736
20,ACTCAAGA,0.0686
21,ATAACAGA,0.0812
22,ACGTTATA,0.0842
23,AGTTAGGG,0.0757
24,GGTTAGAA,0.0724
25,CGGCGTGA,0.0839

row,Sequence,binding signal (normalized occupancy)
1,AGAACCTG,0.0754
2,CAAGCTAA,0.0734
3,AGCACCGA,0.07
4,ACGGTTAG,0.072
5,ACTAGCCG,0.0653
6,CATCGTTC,0.0714
7,AACCCGAA,0.0754
8,AGACCGAT,0.0735
9,GCAAGGCA,0.075
10,AACAGAGA,0.0746
11,GTAAGGAC,0.0678
12,CACGACGC,0.0777
13,AGCCGGCC,0.0666
14,CTGACTGC,0.0712
15,ACTGCGCT,0.0743
16,CCCGTTCG,0.0713
17,AACTAGGG,0.0777
18,CGACTTGC,0.0716
19,GGGTTCTA,0.0754
20,CTGGTAAA,0.0724
21,GTTTGTTA,0.075
22,CTTTTTGA,0.0761
23,GATGACCC,0.0786
24,GACGTTAA,0.0763
25,TAGCAGGA,0.0736

row,Sequence,binding signal (normalized occupancy)
1,CTATACCA,0.0839
2,CAGAGAGA,0.0695
3,AAATGTCA,0.0797
4,TCGGTTAA,0.0699
5,GGAGCGTA,0.0706
6,CGGAGATC,0.0714
7,CAGTGTCA,0.0789
8,GAGCCCGA,0.0736
9,ACGGGGAG,0.0725
10,GCATAGGA,0.0788
11,TATTTGGA,0.0774
12,GACCCCCA,0.08
13,ATGCATGG,0.0969
14,AGATCCTA,0.0763
15,AAACGACT,0.0699
16,GGGACTGA,0.069
17,GGACCCCC,0.0772
18,AGTATGCG,0.077
19,CACAGATC,0.0797
20,AGTACACG,0.0869
21,CATATTAA,0.0818
22,CTTAGGCA,0.0777
23,AAACGGAA,0.068
24,CTCAGCAA,0.0691
25,CATTTGTC,0.0834

row,Sequence,binding signal (normalized occupancy)
1,ACCGGCTC,0.0681
2,AGAGGGTG,0.077
3,ACATAAAC,0.0829
4,CGTATCAC,0.0792
5,AATGCTGA,0.082
6,GATCCACC,0.0812
7,CTCTTAGC,0.0798
8,CACAACCC,0.0801
9,CAGGATTC,0.0733
10,GGGATCCC,0.0723
11,AAATTCCT,0.073
12,CATTCCAC,0.0839
13,ACAGTCAA,0.074
14,ACGTGTAT,0.117
15,ATAGCCAT,0.0853
16,AGGGCGCG,0.0681
17,AGTTTGCC,0.0705
18,AACGAGTA,0.077
19,CGAGCTTC,0.0748
20,GAGCTAGC,0.0715
21,AGGGAGCA,0.0728
22,AACGCTGG,0.0764
23,TCGCTAGA,0.0699
24,GCTCATCA,0.0824
25,GGTCTGGA,0.0728

row,Sequence,binding signal (normalized occupancy)
1,AACGCCGA,0.0693
2,AGAGGGCA,0.08
3,AAATCTGA,0.0782
4,GGGCTAAA,0.0734
5,GATACCTA,0.0797
6,AAAAAACT,0.0712
7,TATTTCCA,0.0787
8,CGCCGGCA,0.0696
9,CTGGTGTA,0.0786
10,CCAGATCG,0.0689
11,AGCTTGAG,0.0649
12,ACAAGCAC,0.0779
13,GTTTAGCA,0.0697
14,GCGCCCGA,0.0658
15,CAGAATCG,0.0691
16,AGGCACTA,0.07
17,CGGCGACA,0.0733
18,AGCGGAGC,0.0679
19,CGTCGAAA,0.0702
20,CAAGTCGA,0.0705
21,AGTTGGCG,0.0685
22,GAATTCTC,0.0755
